Test results as given in publication PMC6919601, “Identification of Plasmodium dipeptidyl aminopeptidase allosteric inhibitors by high throughput screening” (PLoS ONE, 2019).
Out of some 110,000 compounds screened, about 230 (0.21%) showed an effect of 50% or more. The list shows a part of the results.

What follows are molecules tested against DPAP1 (Plasmodium falciparum, UniProt Q8IIJ9) (assay: primary screen, percent inhibition; read by cleavage of a fluorogenic dipeptide substrate; higher = more effect of the substance).
Chain of DPAP1 (Q8IIJ9 whole entry, looked up): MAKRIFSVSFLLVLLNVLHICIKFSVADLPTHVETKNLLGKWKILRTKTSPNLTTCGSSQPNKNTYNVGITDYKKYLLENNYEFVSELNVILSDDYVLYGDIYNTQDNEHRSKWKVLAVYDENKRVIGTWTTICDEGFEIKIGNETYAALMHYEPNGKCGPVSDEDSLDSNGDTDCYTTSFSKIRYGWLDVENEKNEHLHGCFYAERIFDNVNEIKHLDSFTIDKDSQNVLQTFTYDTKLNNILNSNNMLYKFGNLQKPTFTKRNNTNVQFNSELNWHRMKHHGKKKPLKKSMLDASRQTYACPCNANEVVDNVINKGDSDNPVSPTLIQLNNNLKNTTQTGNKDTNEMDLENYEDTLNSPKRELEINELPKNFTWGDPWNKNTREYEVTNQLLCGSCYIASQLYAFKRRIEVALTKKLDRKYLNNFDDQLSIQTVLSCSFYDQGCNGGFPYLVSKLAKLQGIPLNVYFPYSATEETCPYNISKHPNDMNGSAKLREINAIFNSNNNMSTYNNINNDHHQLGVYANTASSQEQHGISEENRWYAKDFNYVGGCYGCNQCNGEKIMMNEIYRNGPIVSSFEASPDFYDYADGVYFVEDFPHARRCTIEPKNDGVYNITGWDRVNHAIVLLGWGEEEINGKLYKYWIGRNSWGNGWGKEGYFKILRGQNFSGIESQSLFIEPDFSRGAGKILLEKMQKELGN
Design: species or system P. falciparum D10 trophozoite lysates; single well
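Note: 30 min substrate incubation versus DMSO and 10 µM JCP410 controls.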

Row | Compound | % Inhibition @ 10 uM [%]
1 | CCOc1ccc(CC(=O)Nc2c(C(C)=O)oc3ccc(Cl)cc23)cc1OCC | -0.413
2 | O=C(O)c1cccc(NC(=O)c2ccc3c(c2)C(=O)N(C2CCCCC2)C3=O)c1 | 21.1
3 | COc1ccc(C2C(C#N)=C(N)Oc3[nH]nc(C)c32)cc1CSc1nc2ccccc2o1 (centres unmarked) | 12.5
4 | CC(C)(C)c1ccc(-c2nc(N3CCCC3)c3ccccc3n2)cc1 | -1.25
5 | O=C(NC1CCCC1)C1COc2ccccc2O1 (centres unmarked) | -1.59
6 | NC(=O)c1c(NC(=O)c2ccc(Cl)cc2)sc2c1CCCCC2 | 15.7
7 | C=CCNC(=O)c1c([N+](=O)[O-])cnn1C | 0.989
8 | COC(=O)c1c(C)nn(-c2ccccc2)c1-n1cccc1 | -5.37
9 | O=C(Nc1c2c(nc3c1CCC3)CCCC2)C1CCCCC1 | -6.44
10 | COC(=O)/C(C#N)=C/c1c(Oc2ccccc2)nc2ccccn2c1=O | -5.11
11 | Cc1c(C)n(C)c2ccc(C(=O)NCc3ccc(OC(C)C)cc3)cc12 | 4.44
12 | CCOC(=O)N1CCN(c2c(NCCN(C)Cc3ccccc3)c(=O)c2=O)CC1 | -3.21
13 | CCOC(=O)CC(N)c1ccc(Cl)cc1 (centres unmarked) | -5.44
14 | CSc1ncc(Cl)c(C(=O)Nc2sc3c(c2C(=O)NCc2ccco2)CCCC3)n1 | 0.569
15 | Cc1ccccc1OCC(=O)Nc1cccc(C)c1C | -0.872
16 | Cc1ccc(NC(=O)c2ccccc2C(=O)O)cc1F | -7.34
17 | CCOc1ccc(CCNCc2c(C(=O)O)n(Cc3ccc(C)cc3)c3cc(C)ccc23)cc1 | 5.43
18 | CCN1CCN(C2=NC(=O)/C(=C/c3ccc4c(c3)OCO4)S2)CC1 | -3.74
19 | Cc1cc2c(c(C)nn2-c2ccccc2)c(=O)o1 | 0.219
20 | CC(C)(C)C(=O)NCc1nc(-c2ccc(Cl)cc2)no1 | 2.14
21 | COc1ccccc1C1=N/C(=C\c2ccc(C)cc2)C(=O)O1 | 1.59
22 | CCC(C)Cn1c(CNC(=O)c2ccccc2)nc2ccccc21 (centres unmarked) | 3.81

Row | Compound | % Inhibition @ 10 uM [%]
23 | Cc1ccnc(NC(=O)c2ccc(Cl)cc2Cl)c1 | -7.34
24 | CN(C)c1nc(NCc2ccccc2)nc(Oc2ccc(O)nn2)n1 | -2.75
25 | CCN(CC)CCCNC(=O)C1CCN(c2nnc(C)c3c(C)n(-c4ccc(OC)cc4)nc23)CC1 | -4.18
26 | Cc1nc(NC(=O)c2c(-c3ccccc3Cl)noc2C)sc1C | -2.22
27 | COc1ccc2c(CNCC(C)c3ccccc3)c(C(=O)O)n(Cc3ccc(F)cc3)c2c1 (centres unmarked) | 1.8
28 | CCOc1ccccc1C1CC(=O)NC(SC)=C1C#N (centres unmarked) | -3.32
29 | N#Cc1c(O)nc2ccccc2c1O | -3.13
30 | Cc1c(C2C(C#N)=C(N)N(c3nnc(SC(C)C)s3)C3=C2C(=O)CCC3)cnn1C (centres unmarked) | -2.19
31 | CCc1ccc(Oc2nc3c(C)cccn3c(=O)c2/C=C(\C#N)C(=O)OC)cc1 | 3.63
32 | CC(C)N(Cc1ccccc1)C(=O)C1CCN(c2ncnc3c2nc2n3CCCCC2)CC1 | -2.46
33 | COc1cc(/C=C2/NC(=O)N(c3ccc(Cl)cc3)C2=O)ccc1O | -1.12
34 | COc1ccc(C2CC(=O)c3c([nH]c(C(=O)O)c3C)C2)cc1 (centres unmarked) | -0.0508
35 | CCc1ccccc1NC(=O)Cn1cnc2scc(-c3ccc(OC)cc3)c2c1=O | 6.57
36 | Cc1ccc(S(=O)(=O)NCC2CCC(C(=O)N3CC(C)CC(C)C3)CC2)cc1 (centres unmarked) | -4.53
37 | Cc1nn2c(=O)/c(=C/c3ccc(Cl)c(Cl)c3)sc2nc1=O | -5.2
38 | Cc1ccc(CCN2CC(C(=O)N3CCC4(CC3)OCCO4)CC2=O)cc1 (centres unmarked) | 3.24
39 | Cc1ccc(-c2cc(NC(=O)c3ccc(OCC(C)C)cc3)on2)cc1 | 1.9
40 | Cc1sc(NC(=O)c2cc3nc(-c4cccs4)cc(C(F)(F)F)n3n2)c(C(N)=O)c1C | 5.44
41 | CNCC(O)COc1ccc(C)cc1C (centres unmarked) | -1.86
42 | COc1ccc2c(c1)CC/C(=C\c1ccc(Br)o1)C2=O | 7.57
43 | COc1ccc2cc3cc(C(=O)N4CCC(Cc5ccccc5)CC4)oc3nc2c1 | -3.35
44 | COc1ccc(OC)c(CNC(=O)Cn2ccc3cc(S(=O)(=O)N4CCCC4)ccc32)c1 | -2.93

Row | Compound | % Inhibition @ 10 uM [%]
45 | Nc1c(-c2nc(-c3ccc4c(c3)OCO4)no2)nnn1-c1ccccc1 | 4.48
46 | CCOC(=O)C1CCCCN1Cc1ccco1 (centres unmarked) | -1.86
47 | Cc1ccccc1-c1nn[nH]n1 | 2
48 | Fc1ccc(N2CCN(CC3CC4C=CC3C4)CC2)cc1 (centres unmarked) | -2.95
49 | COc1ccccc1C(=O)NC1=NC(=O)CC(c2ccccc2F)N1 (centres unmarked) | -2.65
50 | O=C(NC1CCCC1)c1csc2c1CCCC2 | -5.05
51 | CC1CC(=O)C2=C(C1)OC(N)=C(C#N)C2c1cccc(Cl)c1Cl (centres unmarked) | 3.54
52 | Cc1ccc2c(c1)c(-c1ccccc1)c(-c1ccccc1)n2CCC#N | -0.582
53 | COc1ccc2cc(C(=O)Nc3ccc(Cl)cc3)sc(=O)c2c1OC | 1.64
54 | CCOc1ccc(-c2cc(C)n3nc(C(=O)N(C)Cc4ccccc4)cc3n2)cc1 | 0.709
55 | c1cc(-c2nnn(CCOCCn3nnc(-c4ccncc4)n3)n2)ccn1 | 2.57
56 | O=C1NC(/C=C/c2ccccc2Cl)Nc2sc3c(c21)CCCC3 (centres unmarked) | -3.85
57 | Cc1ccc(-c2cc(C(=O)N3CCOCC3)c3ccccc3n2)cc1 | 3.49
58 | Cc1ccc(N2CCN(S(=O)(=O)c3ccccc3)CC2)c(C)c1 | -2.67
59 | CCN(CC)CCNC(=O)C1CCCc2c1[nH]c1c(C(=O)O)cccc21 (centres unmarked) | 3.96
60 | COc1cccc(C(=O)ON=C2C=CC(=O)C=C2)c1 | 0.146
61 | COc1ccc(CN2CCN(Cc3cccnc3)CC2)c(OC)c1OC | -9.68
62 | O=C(CCCn1sc2ccccc2c1=O)NCc1cccc(Cl)c1 | -1.06
63 | COc1ccc(CCNC(=O)Cn2ccc3cc(S(=O)(=O)N4CCCC4)ccc32)cc1OC | 4.14
64 | S=c1[nH]c(=S)c2c3c(sc2[nH]1)CCC3 | 85.2
65 | CC(CCc1ccccc1)NC(=O)C1CCN(c2nc3ccccc3n3cccc23)CC1 (centres unmarked) | -1.08
